Source: patent US20030050248A1 (priority 2000, published 2003)

The compounds below were run on Staphylococcus (assay: not given). Details: overnight incubation, non-turbid well.

O=C(O)[C@H]1c2ccccc2CCN1C(=O)OCC1c2ccccc2-c2ccccc21 [Reference #16] and O=C(O)[C@@H]1CC[C@H](c2ccccc2)N1C(=O)OCC1c2ccccc2-c2ccccc21 [Reference #113, (2S,5R)-Fmoc-5-phenyl-pyrrolidine-2-carboxylic acid] are the same in “MIC (minimal inhibitory concentration) +/− sem” value: 25 µg/mL (≈ 62.6 µM) for the first, 25 µg/mL (≈ 60.5 µM) for the second.

Going from O=C(NCCCC[C@H](NC(=O)OCC1c2ccccc2-c2ccccc21)C(=O)O)OCc1ccccc1 [Reference #69, Fmoc-L-Lys(Z)-OH] to O=C(N[C@@H](C/C=C/c1ccccc1)C(=O)O)OCC1c2ccccc2-c2ccccc21 [Reference #124, Fmoc-L-styrylalanine], the “MIC (minimal inhibitory concentration) +/− sem” value falls from 50 µg/mL (≈ 99.5 µM) to 25 µg/mL (≈ 60.5 µM) (2-fold).

First: O=C(NC1(C(=O)O)CCCCC1)OCC1c2ccccc2-c2ccccc21 [Reference #86, Fmoc-1-amino-1-cyclohexane carboxylic acid]
Second: O=C(Nc1ccccc1C(=O)O)OCC1c2ccccc2-c2ccccc21 [Reference #4, Fmoc-2-aminobenzoic acid]
The “MIC (minimal inhibitory concentration) +/− sem” value of the first is 6.9-fold higher: 50 ± 0 µg/mL (≈ 137 µM) for the first, 7.2 ± 1.6 µg/mL (≈ 20 µM) for the second.

Compared with CC(C)(C)OC(=O)n1cc(C[C@H](NC(=O)OCC2c3ccccc3-c3ccccc32)C(=O)O)c2ccccc21 [Reference #35, Fmoc-L-Trp(Boc)-OH], C[C@@H](O)[C@H](NC(=O)[C@H](Cc1cn(C(=O)Sc2ccccc2)c2ccccc12)NC(=O)[C@@H]1CCCN1C(=O)[C@H](CO)NC(=O)[C@H](Cc1ccc(O)cc1)NC(=O)OCC1c2ccccc2-c2ccccc21)C(=O)N[C@@H](CC(N)=O)C(=O)N[C@@H](Cc1ccccc1)C(=O)O [VIF-1, (Fmoc-Tyr)-Ser-Pro-Trp(phenylthiocarbamate)-Thr-Asn-Phe] (Fmoc-YSPW(X1)TNF-OH; C-terminus assumed) is 2-fold higher in “MIC (minimal inhibitory concentration) +/− sem” value: 12.5 ± 0 µg/mL (≈ 23.7 µM) for the first, 25 µg/mL (≈ 19.6 µM) for the second.

With N[C@@H](Cc1c[nH]c2ccccc12)C(=O)O [Reference #46, H-L-Trp-OH] the “MIC (minimal inhibitory concentration) +/− sem” value was 50 µg/mL (≈ 245 µM).

These compounds were tested on Staphylococcus (assay: microbe, parasite or virus in culture). Details: read-out: MIC (minimal inhibitory concentration) +/− sem.

With NC(=O)NCCC[C@H](NC(=O)OCC1c2ccccc2-c2ccccc21)C(=O)O [Reference #105, Fmoc-L-citrulline] the MIC was 50 µg/mL (≈ 126 µM).

Converted amounts (≈) assume the structure as drawn. Peptide text beside a SMILES is read from it. * marks the point of attachment. Fmoc = O=C(OCC1c2ccccc2-c2ccccc21)*; X1 = O=C(Sc1ccccc1)*
